Reference: the supplement of paper PMC11417369
Some of the results follow.

Test system: PfAP2-HC AP2 domain (GST-tagged)
Test: gcPBM binding intensity (ln(normalized median fluorescence intensity)); higher = stronger DNA binding
In short: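 Each value is the highest Masliner-normalised natural-log median intensity across replicate spots of either orientation of a probe. The probes were primer-extended double-stranded 36-bp intergenic genomic sequences on an Agilent 4 × 180k array, alongside negative controls, exposed for 1 h to GST-tagged P. falciparum DNA-binding domains expressed in E. coli. Bound protein was picked up with Alexa488 anti-GST antibody and scanned at 488 nm.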

Going from “TTTTTATTGTTGTACTTATATTATTTTATTATTAAA [GTGCAC_negctrl_site200]” to “CTAATATATATCAATTGTACATATTGAATAAGAACA [XGTACX_site4541]”, the “gcPBM binding intensity (ln)” value falls from 9.72 to 9.64.

Compared with “AAAAAAAAAAAAAAATGTACCCATATATAAATATAT [XGTACX_site4061]”, “AAAAAATGGATGATCACACACTTCATAAAAATTGCA [CACACA_site5256]” is higher in “gcPBM binding intensity (ln)” value: 9.51 for the first, 9.78 for the second.

First: TTTAATTATAAAACGTGTACATAATTATAATTACAT [XGTACX_site2206]
Second: ATCATTTGCTCACGCACACACACATAAAAAGAAAAA [CACACA_site4349]
The “gcPBM binding intensity (ln)” value of the first is lower: 9.73 for the first, 10.2 for the second.

Going from “ATTATGTACAAAATGGTGCAATATTATACATATATA [GTGCAC_site9468]” to “AAAAATAGTATAAGTAGTACAACTGAAAAGTTATGT [XGTACX_site7488]”, the “gcPBM binding intensity (ln)” value rises from 9.7 to 10.1.

Going from “AAAATAATCACATATTGTACAAAAAAATTTATTAAA [XGTACX_site3239]” to “TATATTAATATGAAAAGTACACATTCTATATATATA [XGTACX_site929]”, the “gcPBM binding intensity (ln)” value falls from 9.76 to 9.54.

Compared with “ACATAATTTGATAATACACACAAATAATCTAAAATT [CACACA_site129]”, “TTTATTATCTTATTCACACACATATATAAATATGTA [CACACA_site7369]” is higher in “gcPBM binding intensity (ln)” value: 9.8 for the first, 9.87 for the second.

Compared with “AAAAAAAAAACATACACACACACAAATATTTATATA [CACACA_site437]”, “AACATAATAAAAAAACGTACATAATTTTATATACAT [XGTACX_site6602]” is lower in “gcPBM binding intensity (ln)” value: 10.6 for the first, 9.75 for the second.

Compared with “ATATATCCAATATATATATATATATATATATATATA [CACACA_negctrl_site160]”, “ACATTCATAAAAAAAAGTACATTTTTTATAAAAGAA [XGTACX_site6197]” is lower in “gcPBM binding intensity (ln)” value: 9.55 for the first, 9.53 for the second.

Compared with “TTGTTAAATATTTATAAAATGAATTTAAAATGTACT [CACACA_negctrl_site665]”, “AAGAAAAAATGATGAATAGAGATCAAATCTATATAT [TGCATGCA_negctrl_site29]” is higher in “gcPBM binding intensity (ln)” value: 9.32 for the first, 9.65 for the second.

First: ATAATATAGAAACACACACACATATATATATACATT [CACACA_site555]
Second: TTTATATATAAATATATATATATATATATATATATA [TGCATGCA_negctrl_site121]
The “gcPBM binding intensity (ln)” value of the first is higher: 10.7 for the first, 9.33 for the second.

First: TAGTTTTTATATAGCACACATATTGTGATTATGTAT [CACACA_site1196]
Second: AAATTATGTGCCAATACACACACACCGATATATATA [CACACA_site8050]
The “gcPBM binding intensity (ln)” value of the first is lower: 9.77 for the first, 10.3 for the second.

Compared with “TTCTTAGATTGTACAGTACACACCTTTAGAATGTTA [CACACA_site212]”, “AATTCATTTTACCCATGTACACAATTATATTTTATA [XGTACX_site4127]” is lower in “gcPBM binding intensity (ln)” value: 9.77 for the first, 9.67 for the second.

First: TACTACCACGGACATGCATGCACATTATTACTCTAA [TGCATGCA_site313]
Second: ATATATATATGTTTGTGTACTTATGATATCATATAA [XGTACX_site3276]
The “gcPBM binding intensity (ln)” value of the first is higher: 9.86 for the first, 9.68 for the second.

First: AATATATATATATATATTTTTGTTAGAATATGGAAT [GTGCAC_negctrl_site434]
Second: TTAAAATAGCTAGTTTGTACATAAAATATATTACTT [XGTACX_site202]
The “gcPBM binding intensity (ln)” value of the first is higher: 9.62 for the first, 9.6 for the second.

First: TAAATAAATAAAAATAGTACATAATTATTATTATTA [XGTACX_site4981]
Second: ATATATATGTATGTATGTACACACAAAAAATGGAAT [XGTACX_site7879]
The “gcPBM binding intensity (ln)” value of the first is lower: 9.59 for the first, 10.4 for the second.

First: TACAAAATAAATGGAACATGCAAAAAAATTGATTAA [TGCATGCA_site790]
Second: AAAAAAAAAAAAAAAACACACATTTTAAGAAAAAAA [CACACA_site2926]
The “gcPBM binding intensity (ln)” value of the first is higher: 9.76 for the first, 9.7 for the second.

Compared with “ATATGCTATTATATATGTACACACCAATTTATTTAT [XGTACX_site8364]”, “ATAGAATATTAATAATTAAAAATAAAATAAAATAAA [CACACA_negctrl_site1810]” is lower in “gcPBM binding intensity (ln)” value: 9.89 for the first, 9.7 for the second.

First: TATTTAATTATTTGTAGTACGATTAATATTTAATGA [XGTACX_site3553]
Second: CTTAATAAGAATAAATGTACAAGGGATAAAAAATTT [XGTACX_site3213]
The “gcPBM binding intensity (ln)” value of the first is lower: 9.53 for the first, 9.79 for the second.

Going from TTAATTAATTTTTCAGTGCAAATAAAAAATATTTAA to “CAAAAGTAAGCACGCACACACAACATGAAATAAACT [CACACA_site6223]”, the “gcPBM binding intensity (ln)” value rises from 9.25 to 10.6.

First: TATCTTATAAACTCTGCACACATAATATATTAAATG [CACACA_site8587]
Second: TATACGCAGAAACACACACACATACACCCACATACA [CACACA_site1723]
The “gcPBM binding intensity (ln)” value of the first is lower: 9.93 for the first, 10.6 for the second.

Compared with “AACGTTCATAATTATTGTACCCTCATTTTATTTTTT [XGTACX_site503]”, “AAAAATTTTAATTAGGAACACACATATATATATATA [CACACA_site9016]” is lower in “gcPBM binding intensity (ln)” value: 9.87 for the first, 9.86 for the second.

First: ATAAAACGAAGATGTTGTACGTACAAATAAATGAAT [XGTACX_site2472]
Second: ATAACTTTTTAAAAGACACACATAAGAAAAACAAAA [CACACA_site723]
The “gcPBM binding intensity (ln)” value of the first is higher: 10.1 for the first, 9.72 for the second.

Compared with “TATATTAGAAAGGATACACACATATATATATATCTA [CACACA_site570]”, “ATAAAAATATTGTCTAGTACATATTTATAATAAAAA [XGTACX_site7523]” is lower in “gcPBM binding intensity (ln)” value: 9.87 for the first, 9.44 for the second.

Compared with “AGAAATATATCTATTTGTCCGTATATTCATATTTAT [XGTACX_site8427]”, “AGATTGGAACATTAAAGTACTTACTTTTTTTTTTTT [XGTACX_site8017]” is lower in “gcPBM binding intensity (ln)” value: 9.74 for the first, 9.51 for the second.

First: GATTACTAGAAATGCACACACTGATAAAATAAGGAA [CACACA_site6131]
Second: TATATATATGAGTATACACACCTGATAAAGGTATAT [CACACA_site5462]
The “gcPBM binding intensity (ln)” value of the first is higher: 10.4 for the first, 9.8 for the second.

First: TTAAACTTGAAACACACACACACACCGATATAAAAA [CACACA_site4578]
Second: ATATATTTAAACAAAAGTACAAATCATAAATTCAAG [XGTACX_site3633]
The “gcPBM binding intensity (ln)” value of the first is higher: 10.5 for the first, 9.58 for the second.

Going from “TATATATTCTTTTAATGTACATATTGTATTATATCC [XGTACX_site4501]” to “TCTTTATCTTCTTATACACACATTTATTAAAAAAAA [CACACA_site445]”, the “gcPBM binding intensity (ln)” value falls from 9.77 to 9.57.

Going from “TGACATAAAAAATATACACACTATAATATTTATACT [CACACA_site6776]” to “ATTTTTTAAAAAGTAACACACACTCTTATATATAAT [CACACA_site9206]”, the “gcPBM binding intensity (ln)” value rises from 9.82 to 9.91.

First: ATTTTTTTTTTTTTTTTTTTTGCACCATAAAATAAT [CACACA_negctrl_site1324]
Second: TATATACTCAAACACACACACACATACACAGACATA [CACACA_site5025]
The “gcPBM binding intensity (ln)” value of the first is lower: 9.48 for the first, 10.7 for the second.

Going from “ATTTTGACATTATATAGTACATATAATTTACATTTA [XGTACX_site3024]” to “TATATATATATGTGTACACATTTGTCAGATTATATA [CACACA_site4813]”, the “gcPBM binding intensity (ln)” value rises from 9.68 to 9.79.

Going from “TATTATTAATATGTATGGTTGTAATCTGTGTCTCCT [TGCATGCA_negctrl_site190]” to “AATATAATTTTTTATTGTACAAAAAAATTATTTAAT [XGTACX_site3248]”, the “gcPBM binding intensity (ln)” value falls from 9.92 to 9.41.

First: AAGAACAAATATGAGGTGCAACACAATATATTATTA [GTGCAC_site9965]
Second: AATAAGTATACACATACACACACACCCAAAAAAAAA [CACACA_site8034]
The “gcPBM binding intensity (ln)” value of the first is lower: 9.86 for the first, 11 for the second.

Going from “TTTTTTTTTATCAAATGTACATATATATAATAATAA [XGTACX_site3941]” to “CATTTTGTAAGATATGCACACATGGATCATATTTTA [CACACA_site423]”, the “gcPBM binding intensity (ln)” value rises from 9.25 to 9.66.

Compared with “TTTTACAATGAAATATGTACTTAAATGTCCAAATTC [XGTACX_site781]”, “TATATAAGAATATATACACACATATATGTATATATA [CACACA_site2178]” is higher in “gcPBM binding intensity (ln)” value: 9.5 for the first, 9.71 for the second.

Compared with “AAAAAGAAAAATTGCACACACTTATAAAAATATACG [CACACA_site6074]”, “GTTAACAAATAATGCACACAAATGGATAAAATTATA [CACACA_site3725]” is lower in “gcPBM binding intensity (ln)” value: 10.1 for the first, 9.9 for the second.

Going from “TTAACCATTAATTCTCTACACACTTTTATTTTATTT [CACACA_site8522]” to “ATGGGTATTAAGTGTACACATATAGTGTATTTTGTT [CACACA_site4452]”, the “gcPBM binding intensity (ln)” value falls from 9.93 to 9.85.

Compared with “GTGTAAATATAATTAGTTTCACAAAACAAATATTTA [CACACA_negctrl_site717]”, “AGGCACAAAATTAAATGTACATATATATATATATAT [XGTACX_site3323]” is higher in “gcPBM binding intensity (ln)” value: 9.61 for the first, 9.66 for the second.

Going from “CATATACAGAAACACACACACACATAAATAAATATA [CACACA_site1343]” to “TTTAATTAAATATGTATATATATTCATGTATGTATA [GTGCAC_negctrl_site14]”, the “gcPBM binding intensity (ln)” value falls from 11 to 9.58.

Going from “AGTAGATATAAAAGGAGTACACATATATATATAAAT [XGTACX_site4375]” to “AAAAAAAAAAGACACACACACATATTTATTTATATA [CACACA_site6484]”, the “gcPBM binding intensity (ln)” value rises from 9.85 to 10.4.

Going from “AATATATAAGTGTTGTGTACTAAAGTATTTTCCTAT [XGTACX_site1622]” to “ATAGTATCTGGTAGCTGTACGAGTCGTATAGTGCAG [XGTACX_site2542]”, the “gcPBM binding intensity (ln)” value falls from 9.95 to 9.66.

First: TTTCCGTATAATTTTGCACACGAATATAAATTTGAT [CACACA_site137]
Second: ATAGTTTTACACATTTGTACATAATTTACAACAAAA [XGTACX_site25]
The “gcPBM binding intensity (ln)” value of the first is higher: 9.72 for the first, 9.55 for the second.

Compared with “ATATATATATATTCCACACACACACTAATAAAAAAA [CACACA_site9214]”, “TTTAATCAAATTAAAAGTACAGAATTGTTCATGTAG [XGTACX_site1229]” is lower in “gcPBM binding intensity (ln)” value: 10.3 for the first, 9.53 for the second.

First: AAAAAATATTATATATGTACATAATATTTTTTTTTT [XGTACX_site5909]
Second: TATATATATATATATACATGCATATTTTTTATTTTT [TGCATGCA_site464]
The “gcPBM binding intensity (ln)” value of the first is lower: 9.4 for the first, 9.5 for the second.

First: TTTTTTATATATATTTGTACATATTGCATGTTCCCT [XGTACX_site7143]
Second: TATATTTATCTGATAACACACATAAATTAGACATTT [CACACA_site6887]
The “gcPBM binding intensity (ln)” value of the first is higher: 9.72 for the first, 9.55 for the second.
